# Experimental data published in the supplement of paper PMC4967469.
# Assays:
# Assay in all cases: Viability of human cancer cell lines after 72 h of drug (GDSC screen)
# OSI-930 = compound: O=C(Nc1ccc(OC(F)(F)F)cc1)c1sccc1NCc1ccnc2ccccc12 [OSI-930]; settings: top dose 10.24 µM
# Protocol: (§1)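 Human cancer cell lines in 384-well plates, medium with 10% serum, drug for 72 h over a 256-fold dose range (nine 2-fold or five 4-fold steps up to the top dose). Adherent lines were fixed and stained with the nucleic acid dye Syto60, suspension lines read with resazurin; signal relative to control wells, capped at 0 and 100%. One two-parameter sigmoid per drug and line, fitted in a mixed model over all curves with the slope shared within a line.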
# VNLG/124 = compound: CCCC(=O)OCc1ccc(OC(=O)/C=C(C)/C=C/C=C(C)/C=C/C2=C(C)CCCC2(C)C)cc1 [VNLG/124]; settings: top dose 5.12 µM; top dose inferred
# Protocol: as §1
# BX-912 = compound: O=C(Nc1cccc(Nc2ncc(Br)c(NCCc3cnc[nH]3)n2)c1)N1CCCC1 [BX-912]; settings: top dose 10.24 µM; top dose inferred
# Protocol: as §1
# LAQ824 = compound: O=C(/C=C/c1ccc(CN(CCO)CCc2c[nH]c3ccccc23)cc1)NO [LAQ824]; settings: top dose 1.024 µM; top dose inferred
# Protocol: as §1
# Bleomycin = compound: Cc1c(N)nc([C@H](CC(N)=O)NC[C@H](N)C(N)=O)nc1C(=O)N[C@H](C(=O)N[C@H](C)[C@@H](O)[C@H](C)C(=O)N[C@H](C(=O)NCCc1nc(-c2nc(C(=O)NCCC[S+](C)C)cs2)cs1)[C@@H](C)O)[C@@H](OC1OC(CO)C(O)C(O)C1OC1OC(CO)C(O)C(OC(N)=O)C1O)c1cnc[nH]1 [Bleomycin]
# Protocol: as §1
# NSC-87877 = compound: O=S(=O)(O)c1ccc2cc(N=Nc3cc(S(=O)(=O)O)c4cccnc4c3O)ccc2c1 [NSC-87877]; settings: top dose 16 µM; top dose inferred
# Protocol: as §1
# Elesclomol = compound: CN(NC(=O)CC(=O)NN(C)C(=S)c1ccccc1)C(=S)c1ccccc1 [Elesclomol]; settings: top dose 0.2 µM; top dose inferred
# Protocol: as §1
# Masitinib = compound: Cc1ccc(NC(=O)c2ccc(CN3CCN(C)CC3)cc2)cc1Nc1nc(-c2cccnc2)cs1 [Masitinib]; settings: top dose 20 µM
# Protocol: as §1
# Tamoxifen = compound: CC/C(=C(\c1ccccc1)c1ccc(OCCN(C)C)cc1)c1ccccc1 [Tamoxifen]; settings: top dose 5 µM
# Protocol: as §1
# [1] = top dose 50 µM, screen: GDSC drug entry 1378, top dose inferred
# [2] = top dose 64 µM, screen: GDSC drug entry 190
Cell Line,AUC (OSI-930),IC50 (OSI-930) [µM],AUC (VNLG/124),IC50 (VNLG/124) [µM],AUC (BX-912),IC50 (BX-912) [nM],AUC (LAQ824),IC50 (LAQ824) [nM],AUC (Bleomycin; [1]),IC50 (Bleomycin; [1]) [nM],AUC (Bleomycin; [2]),IC50 (Bleomycin; [2]) [nM],AUC (NSC-87877),IC50 (NSC-87877) [µM],AUC (Elesclomol),IC50 (Elesclomol) [nM],AUC (Masitinib),IC50 (Masitinib) [µM],AUC (Tamoxifen),IC50 (Tamoxifen) [µM]
"PF-382 (T-cell lymphoblastic leukaemia, suspension)",0.957,> 10.2,0.984,> 5.12,0.289,178,0.273,16,0.839,28100,0.19,560,0.983,> 16,0.937,> 200,0.879,16.1,0.99,> 5
"PSN1 (pancreas, adherent)",0.943,> 10.2,0.991,> 5.12,0.849,5930,0.284,17.6,0.422,1990,0.098,264,0.99,> 16,0.312,4.09,0.884,15.8,0.99,> 5
"QIMR-WIL (acute myeloid leukaemia, suspension)",0.895,> 10.2,0.855,3.9,0.483,574,0.252,12.8,0.657,8410,0.232,689,0.97,> 16,0.738,58.2,0.815,10.5,0.976,> 5
"REH (B-cell leukaemia, suspension)",0.93,> 10.2,0.97,> 5.12,0.44,443,0.322,20.9,0.376,1440,0.06,< 250,0.983,> 16,0.59,21.8,0.848,13.9,0.961,> 5
"RF-48 (stomach, adherent)",0.926,> 10.2,0.939,> 5.12,0.828,7400,0.287,14.7,0.877,> 50000,0.34,1360,0.975,> 16,0.962,> 200,0.887,> 20,0.981,> 5
"RH-41 (rhabdomyosarcoma, adherent)",0.985,> 10.2,0.98,> 5.12,0.584,1040,0.479,56.8,0.902,46300,0.969,> 64000,0.982,> 16,0.264,3.05,0.898,17.8,0.992,> 5
"RMG-I (ovary, adherent)",0.96,> 10.2,0.978,> 5.12,0.9,> 10200,0.645,173,0.469,2530,0.044,< 250,0.896,> 16,0.937,> 200,0.907,> 20,0.979,> 5
"ROS-50 (B-cell leukaemia, suspension)",0.976,> 10.2,0.914,> 5.12,0.908,> 10200,0.503,65.4,0.904,> 50000,0.533,5040,0.98,> 16,0.894,> 200,0.855,> 20,0.979,> 5
"RPMI-2650 (head and neck, adherent)",0.981,> 10.2,0.976,> 5.12,0.92,> 10200,0.398,32.9,0.509,3310,0.211,518,0.983,> 16,0.648,33.4,0.925,> 20,0.978,> 5
"RPMI-6666 (Hodgkin lymphoma, suspension)",0.811,6.83,0.822,3.84,0.705,2760,0.186,5.79,0.335,981,0.225,521,0.981,> 16,0.977,> 200,0.753,7.89,0.956,> 5
"Raji (Burkitt lymphoma, suspension)",0.986,> 10.2,0.99,> 5.12,0.99,> 10200,0.509,67.7,0.639,7380,0.402,2200,0.989,> 16,0.887,198,0.885,19.4,0.988,> 5
"Ramos-2G6-4C10 (Burkitt lymphoma, suspension)",0.941,> 10.2,0.985,> 5.12,0.711,2270,0.354,26.9,0.989,> 50000,0.657,10100,0.983,> 16,0.403,7.05,0.862,13.2,0.977,> 5
"SAS (head and neck, adherent)",0.944,> 10.2,0.981,> 5.12,0.9,> 10200,0.567,99.5,0.16,242,0.494,3850,0.975,> 16,0.61,26,0.929,> 20,0.98,> 5

# IC50 is the fitted dose that halves viability relative to control wells, and lower means more sensitive; where the fit passes the top or lowest dose, that dose stands as a limit. AUC, from the same fit, is the share of area under the viability curve across the 256-fold dose range; values near 1 show little effect. For some assays here: A top dose marked as inferred comes from the curve model; the source does not state it. For some assays here: An entry number marks a drug with two screens in the source, which often give different values.
